Source: ChEMBL document CHEMBL4888484, “Replenishing the malaria drug discovery pipeline: Screening and hit evaluation of the MMV Hit Generation Library 1 (HGL1) against asexual blood stage Plasmodium falciparum ,using a nano luciferase reporter read-out” (2022)
Screen size: about 150,000 compounds; about 540 (0.36%) showed an effect of 50% or more. The list shows a part of the results.

What follows are molecules tested on Plasmodium falciparum (assay: Primary screen in NF54 nanoGlo assay, in single point, at 2uM, 72h; a lower Z score goes with more inhibition). Settings: timepoint 72 hour.
Format: functional, Erythrocyte

SMILES	% Inhibition	Z score
CNC(=O)[C@H]1CN(Cc2cccnc2)C[C@@H]1NC(=O)c1cc(C)on1	-1%	0.1
COCCC1(C(=O)NC[C@@H]2OCCc3sccc32)CCCC1	-13%	1.84
O=C(c1nn(-c2ccc(Cl)cc2Cl)c2c1CCC2)N1CC[C@@](F)(CO)C1	-2%	0.31
CC(=O)Nc1ccc2nc(NCc3ccc(N(C)C)nc3)sc2c1	-12%	1.79
Cc1cnn(CC(=O)NCc2ccc3c(n2)CCCC3)c1	3%	-0.32
Cc1c(C(=O)NC[C@H]2C(C)(C)C2(F)F)c2ccccc2[nH]c1=O	0%	0.01
O=C(CCOc1ccccc1)NCC1(CO)CCOCC1	0%	0.05
CC(C)(C)N(CC(N)=O)Cc1cnc(C2CCCC2)s1	-1%	0.18
CCN1CCN(c2nc3c(s2)CN(Cc2ccccn2)CC3)CC1	5%	-1.07
Cc1cccnc1C[C@H](C)NC(=O)c1ccc2oc(-c3cccc(F)c3)nc2c1	-14%	1.32
CC(C)c1ccccc1S(=O)(=O)N1CCNC[C@@H]1C	-2%	0.3
Cc1nnsc1C(=O)N1CCn2nc(CCC(=O)NC3CC3)cc2C1	-11%	1.56
Cc1cccc2nc(CN(C)C(=O)CCCn3cncn3)[nH]c12	8%	-1.51
Cc1ccc(C)c([C@H](C)N(C)C(=O)c2ccc3cnccc3n2)c1	-9%	1.29
O=C1CCCN1CCCN1C(=O)[C@H]2CN(Cc3ccc(Br)cc3)C[C@H]2C1=O	-7%	0.88
CCCNC(=O)C1CCN(c2c(C(=O)N3CCCC3)cnc3snc(C)c23)CC1	-10%	1.47
CCOc1cc([C@H]2Nc3ccccc3C(=O)N2c2ccccc2)ccc1OCc1ccccc1Cl	5%	-0.57
COc1ccc([C@H]2C[C@@H](c3cccc(Br)c3)Nc3ncnn32)cc1	5%	-0.76
CC[C@H](C)Cc1nc(CNC2CC2)n(CCO)n1	3%	-0.45
CCc1ncnc(N[C@@H]2CNc3c(c(C)nn3C)C2)c1F	-3%	0.61
CN(CCCNC(=O)C1CCC1)C(=O)c1cccc2cc[nH]c12	7%	-1.09
CC(C)(C)OC(=O)N1CCCNc2ccccc21	1%	-0.28

SMILES	% Inhibition	Z score
CCn1nc(C)c(Nc2nc(C)nc3c2cnn3C(C)(C)C)c1C	-8%	1.34
COCCN(CC1CN(Cc2ccc(C)cc2)CC1c1ccc(F)cc1)C(=O)C(C)C (stereo not given)	-12%	1.38
O=C(OC1CCCC1)N1CCN(C2CC2)C[C@@H]1Cc1ccccc1	-8%	1.18
CNC(=O)CCc1ccc(Br)c(C)c1	-6%	0.65
Cc1cc(Cl)ccc1NC(=O)N[C@H]1C[C@H]2C(=O)N3CCC[C@@H]3C(=O)N2C1	-19%	2.26
C[C@@H](CCc1ccccc1)NC(=O)c1ccc2c(c1)OCO2	7%	-0.99
Cn1ncc2cc(NC(=O)N3CCC4(CC3)c3ccccc3C[C@@H]4O)ccc21	-10%	1.39
C=CCN(C(=O)NCCN1CCOCC1)C1CC1	-3%	0.3
COc1cc2c(cc1OC)CN(C(=O)[C@@H]1Cc3ccccc3O1)CC2	-7%	0.91
Cc1cnc(C)c(N2CCC[C@]3(CCC(=O)N(C(C)C)C3)C2)n1	-5%	0.61
CC(=O)c1ccccc1NC(=O)C(C)N1CCCC(N2CCCC2)C1 (stereo not given)	-8%	1.57
Cc1ccc2c(c1)CCCN2C(=O)c1cc(F)c[nH]1	-7%	1.23
CN(C)c1ccnc(CNC(=O)c2cnccn2)n1	-2%	0.26
CC(C)(C)c1nc(C(=O)N2CCNC[C@H]2C(F)F)co1	-5%	0.58
C[C@](O)(CN1CCC(Oc2cncc(Cl)c2)CC1)C(F)(F)F	-4%	0.58
O=C1COc2ccc(S(=O)(=O)Nc3ccc4c(c3)CCC4)cc2N1	2%	-0.23
CCn1ncnc1[C@H](C)NC(=O)Cc1cc(F)ccc1C	5%	-0.57
Cc1ccc(-n2ncc3c(=O)n(CC(=O)N4CCC(C)CC4)cnc32)c(C)c1	-5%	0.75
CCn1nccc1C(=O)N1CC[C@H](Nc2ncnc3c2CCC3)C1	-2%	0.34
COc1ccc(-n2c(C)cc(C(=O)N3CCC[C@H](c4nnc5ccccn45)C3)c2C)cc1	-4%	0.5
NCc1nc(C(=O)Nc2ccc(N3CCCC3)c3ncccc23)co1	6%	-0.9
O=C(Nc1ccccc1)OC1CCCC(NC(=O)c2ccc(Cl)s2)C1 (stereo not given)	-7%	0.77

SMILES	% Inhibition	Z score
O=C(c1ccc2c3c(cccc13)CC2)N1CCc2ccccc2C1	-4%	0.79
CN(CCO)C(=O)c1cccc(-c2ccc(-c3ccc4c(n3)NCCC4)cc2)c1	3%	-0.56
CC[C@H](C)NC(=O)c1c(O)nc2c(C)cccn2c1=O	-2%	0.36
Cc1cccnc1-c1cccc(-c2ccn(Cc3cccnc3)n2)c1	-3%	0.5
CN(Cc1nc2c(cnn2C)c(=O)[nH]1)CC1CCCCC1	-3%	0.27
O=C(NCc1ccccc1)c1nc(-c2nc(-c3cccnc3)no2)cs1	-15%	1.54
COc1ccc(CC(=O)N2CCN(S(=O)(=O)c3cc4c5c(c3)CCC(=O)N5CCC4)CC2)cc1	-4%	0.65
CC(C)c1csc(C(=O)NC[C@H]2CCCN(S(C)(=O)=O)C2)n1	-7%	1.04
CC[C@H]1CN(C(=O)NCC2(c3ccccc3)CC2)CCO1	1%	-0.08
Cc1ccc(O[S@](=O)Nc2cccc3nccnc23)cc1	-20%	2.63
CCCc1cnc(NCc2cscn2)s1	-13%	2.56
C[C@H]1CNCCN1S(=O)(=O)c1ccc(OCC(F)(F)F)nc1	-15%	2.05
Cc1ccc(CN[C@H]2CC(C)(C)Cc3c2cnn3-c2cccc(F)c2)o1	-5%	1.03
CCOCCCC(=O)N1Cc2cn[nH]c2C[C@H](C)C1	-7%	0.86
CCN(CC)C(=O)NCc1cccc(OCC(F)F)c1	-14%	1.18
COc1ccc(C(=O)N2CCC(c3cn(Cc4ccc(C(F)(F)F)cc4)c4ccccc34)CC2)cc1OC	-3%	0.36
CCc1c(C(=O)N[C@@H]2CC[C@@H]2COC)ccn1C	-10%	1.41
Cc1noc(C)c1S(=O)(=O)N1CC2(C[C@@H](c3nnc(-c4ccccc4)o3)N(C)C2)C1	-7%	0.77
Cn1ccc(NC(=O)CCNc2ncccn2)n1	-12%	1.54
CCn1c(C)cc(C(=O)Cn2cnc(C#N)n2)c1C	22%	-2.58
CCc1csc(CCNC(=O)[C@H]2CCS(=O)(=O)C2)n1	-11%	1.56
O=C1CN(Cc2c(C(=O)N3CCCCCCC3)nc3sccn23)CCN1	-4%	0.57

SMILES	% Inhibition	Z score
O=C(NCCCN1CCCC1)c1ccc2ncnc(N3CCCC3)c2c1	8%	-1.08
Cc1ccccc1OCC(=O)N(Cc1nnc(-c2ccc(Cl)cc2)o1)C(C)C	-9%	1.43
CCN1CCC[C@H]1C(=O)NCC1CCN(C(=O)[C@H]2CCCO2)CC1	-3%	0.36
Cc1ccc(S(=O)(=O)NCCC2CCN(C)CC2)cc1	2%	-0.27
CC1OC(C)(C)OC1C1CNc2nc(N)[nH]c(=O)c2N1C(=O)c1cccnc1 (stereo not given)	8%	-0.88
CCNC(=O)N1CC(C(=O)NCc2cccc(C)c2)CC(c2ccc(OC)c(OC)c2)C1 (stereo not given)	-14%	1.31
CCOc1ccccc1CNC(=O)c1nc(-c2oc3ccc(C)cc3c2C)no1	-19%	2.23
CCC(CC)C(=O)Nc1cccc(Cl)c1Cl	-6%	0.87
CCc1ccc(NC(=O)CN2C(=O)NC3(CCS(=O)(=O)CC3)C2=O)cc1	5%	-0.58
Cn1c(=O)n(Cc2nc(-c3ccco3)no2)c2cnccc21	-1%	0.15
Cn1cc(S(=O)(=O)N2CCOC[C@H]2c2cccc(F)c2)c(C(F)(F)F)n1	-20%	2.3
O=C(Nc1[nH]c(-c2ccccc2)cc1C(=O)c1ccccc1)c1ccccc1	-5%	0.65
O=C(CCc1nnc(CCc2c[nH]c3ccccc23)o1)N1CCCCCCC1	-20%	2.73
O=C(c1cccnc1)N1CC[C@@]2(CCCN(CCc3ccccc3)C2)C1	-17%	3.27
C[C@@H](Cc1cccnc1)n1ccnc1-c1cccnc1	-5%	0.56
COc1ccc(-c2cc(C(=O)N(CC3CCC3)C[C@H]3CCCO3)n[nH]2)cc1	-24%	2.53
Cc1nc(CNC(=O)c2cn(C)c(C)cc2=O)sc1C	-7%	1.28
O=C(Nc1cccs1)O[C@H]1COCCN(c2nc3ccccc3s2)C1	-7%	0.9
O=C(Nc1ccccc1)C(Nc1ccccc1)(c1ccccc1)c1ccccc1	7%	-1.15
